In all, about 45,000 compounds went through this assay and about 65 (0.1%) were called active. Calls come from the whole dose curve; as a rule, active = well fitted activation curve with a large enough effect; inconclusive = small, poorly fitted or top-dose-only effect; inactive = no such curve, though single readings can be large or run the other way. This is one part of the list.
molecular target: Galactocerebrosidase (Homo sapiens) (UniProt P54803); assay: A Novel Cell-Based Assay to Identify Small Molecules for B -Galactocerebrosidase; conditions: 145M-Twi-hGALC-G270D cells (Twitcher mouse brain line with human GALC G270D), HMU-beta-Gal fluorescence, 48 h; series mostly up to 57.5 µM; activation: at the top concentration; note: 0% is about no effect; nearly all actives have a fitted effect of over 65% in size
Summary of the method: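 Brain-derived Twitcher mouse 145M-Twi cells stably expressing human GALC-G270D or wild-type GALC, treated live, then residual GALC activity read by fluorescence of HMU-b-Gal substrate (0.1 mM final) in citrate-phosphate buffer pH 5.2 with sodium taurocholate. Signal increase indicates enhancement.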

UniProt P54803, sequence (P54803 whole entry, looked up): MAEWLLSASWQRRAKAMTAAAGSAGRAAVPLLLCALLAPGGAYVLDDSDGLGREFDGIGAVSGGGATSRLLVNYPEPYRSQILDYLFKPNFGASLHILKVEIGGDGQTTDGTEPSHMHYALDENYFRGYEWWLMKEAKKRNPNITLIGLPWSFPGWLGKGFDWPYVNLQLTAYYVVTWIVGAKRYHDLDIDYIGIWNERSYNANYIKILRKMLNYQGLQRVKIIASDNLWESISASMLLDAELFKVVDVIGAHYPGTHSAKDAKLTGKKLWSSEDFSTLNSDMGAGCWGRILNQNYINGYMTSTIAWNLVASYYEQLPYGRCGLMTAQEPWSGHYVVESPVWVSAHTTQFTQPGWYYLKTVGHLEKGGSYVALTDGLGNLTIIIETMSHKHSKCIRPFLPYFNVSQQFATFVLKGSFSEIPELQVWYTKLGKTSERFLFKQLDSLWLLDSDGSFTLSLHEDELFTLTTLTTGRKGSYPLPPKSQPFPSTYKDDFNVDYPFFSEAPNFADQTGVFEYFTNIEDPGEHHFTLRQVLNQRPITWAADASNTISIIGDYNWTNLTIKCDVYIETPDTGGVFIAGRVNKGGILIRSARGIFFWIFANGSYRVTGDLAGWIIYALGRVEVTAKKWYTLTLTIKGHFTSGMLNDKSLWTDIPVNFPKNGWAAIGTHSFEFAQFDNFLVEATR

activation, inactive:
Cn1ccc2cc(S(=O)(=O)N3CCC(C(=O)NCCc4ccccc4)CC3)ccc21 2.66%, CCCCOc1ccc(C(=O)Nc2ccc(-c3nc4ccccc4s3)cc2C)cc1 -3.52%, O=C(CN1C(=O)CCc2cc(S(=O)(=O)N3CCOCC3)ccc21)NCc1ccc(F)cc1 -2.94%, CCc1cccc(NC(=O)Nc2csc3c2CCCC3)c1 -8.72%, O=C(COc1ccccc1F)Nc1ccc(-c2nc3ccccc3s2)cc1 -21.1%, Cc1ccc(CNC(=O)c2ccc3c(c2)nc(C)n3-c2cc(C)cc(C)c2)cc1 3.25%, CCc1ccc(NC(=O)CN2C(=O)C3(SCC(=O)N3c3ccccc3)c3ccccc32)cc1 (configuration not stated) -7.29%, COc1ccc(NC(=O)c2sc3nc(C)c(C(=O)Nc4ccc(C)cc4C)c(-c4ccc(C)o4)c3c2N)cc1 -10.4%, Cc1ccc(Nc2nc(C)cc(C)n2)c(C(=O)O)c1 -31.8%, COc1ccc(NC(=O)Cn2nc(-c3ccncc3)ccc2=O)cc1Cl -6.08%, CC1(C)CC(=O)c2cc(-c3nc(-c4ccc(Cl)cc4)cs3)c(=O)n(-c3ccc(Cl)cc3)c2C1 -10.2%, Cc1ccc(Cl)cc1NC(=O)CSC1=Nc2ccccc2C2=NC(Cc3ccccc3)C(=O)N12 (configuration not stated) -14.3%, Cc1ccc(Cn2ccnc2SCC(=O)NCc2ccc(F)cc2)cc1 -8.57%, COc1ccc(OCCCCn2c(C3CC(=O)N(c4cccc(Cl)c4)C3)nc3ccccc32)cc1 (configuration not stated) 21.1%, COc1ccc(NC(=O)CSc2nc3ccccc3n2CC(=O)N(C)c2ccc(F)cc2)cc1 -6.09%, C#CC(C)(CC)NC(=O)c1cnn2c(C(F)F)cc(-c3ccccc3OC)nc12 (configuration not stated) -13.6%, Cc1cc(C)n(CCc2nc3c4ccccc4nc(N4CCN(c5ccccc5F)CC4)n3n2)n1 -6.13%, COc1ccc(CCNc2ncnc3c2cnn3-c2cccc(Cl)c2)cc1 -3.09%, CC(C)CCNC(=O)c1ccc2c(c1)NC(=O)C(CS(=O)(=O)Cc1cccc(Br)c1)N2 (configuration not stated) 18.3%, Cc1ccc(NC(=O)/C(C#N)=C/c2ccc(C)o2)cc1 -17.8%, CCOc1ccc(NC(=O)c2cn(C)c(=O)c3cc(OC)c(OC)cc23)cc1 -6.33%, CCOC(=O)C1CCN(CC(=O)N2CCCc3c2c(=O)oc2ccc(OCc4ccccc4)cc32)CC1 -13.5%, CC(=O)Oc1cccc(O)c1 -13.9%, COc1ccc(-c2onc(C)c2C)cc1S(=O)(=O)N(C)Cc1ccco1 -12.3%, CCOC(=O)C1CCC(CN(Cc2ccc(Cl)cc2)S(=O)(=O)c2ccc(Br)cc2)CC1 (configuration not stated) 5.53%, CN1C(=O)C2(SCC(=O)N2c2cccc(C(F)(F)F)c2)c2ccccc21 (configuration not stated) 3.22%, CCCN1CCN(CCNC(=O)Nc2ccc(OC)c(OC)c2)CC1 -6.81%, CCS(=O)(=O)N1CCc2cc(C(=O)NCCc3ccccc3)ccc21 -9.13%, CCCc1c(OCCCCc2nn[nH]n2)ccc(C(C)=O)c1O -14%, CCCN(c1ccccc1CC)S(=O)(=O)c1ccc2c(c1)CC(C)N2C(=O)C1CC1 (configuration not stated) -9.85%, CCN(CCCNC(=O)c1cc2cc3ccc(C)cc3nc2s1)c1ccccc1 -1.42%, CCS(=O)(=O)N1CC(=O)N(c2cccc(Cl)c2C)C(C)(C(=O)NC2CCCCC2)C1 (configuration not stated) 3.54%, COc1ccc(-c2nc(CSCC(=O)N3CCN(c4ccc(OC)cc4)CC3)c(C)o2)cc1 -0.412%, Cc1ccc(NC(=O)c2oc3ccc(S(=O)(=O)N(C)C4CCCCC4)cc3c2C)cc1Cl -4.26%, O=S(=O)(c1cccc(F)c1)N1CCC(c2nc3ccccc3s2)CC1 -31.7%, COCCNC(=O)CCCN1C(=O)c2ccccc2Sc2ncccc21 -7.98%, Cc1nnc(SCC(=O)Nc2ccc(Br)cc2)[nH]c1=O 2.75%, COc1cccc(-c2nc(CSCC(=O)NCCc3ccc(Cl)cc3)c(C)o2)c1 -2.3%, CC(=O)N1CCc2cc(S(=O)(=O)NC(CC(C)C)C(=O)NCc3ccccc3)ccc21 (configuration not stated) -11.4%, O=c1c(=O)n(-c2cccc(Cl)c2)ccn1Cc1cccc(F)c1 6.22%, COc1cccc2c1cc1c(=O)n(CC(=O)NC3CC3)nc(C)n12 -17.4%, CCOC(=O)c1cc(-c2ccccc2)n(CC(=O)N(C)c2ccc(OC)cc2)c1C -19.5%, CCOc1ccc(NC(=O)C(NC(=O)C2CCC(C)CC2)C(C)C)cc1 (configuration not stated) -16.5%, CCCCC(CC)CNC(=O)CCCn1c(=O)[nH]c2ccsc2c1=O (configuration not stated) 1.4%, Cc1ccc(-c2nc(N3CCN(c4ccccc4Cl)CC3)c3ccccc3n2)cc1 -11.6%, COc1cc(-c2nc(Cn3nnc(C(=O)Nc4cc(C)cc(C)c4)c3C)c(C)o2)cc(OC)c1OC -0.386%, COc1ccc(C)cc1Nc1nc(-c2cccc(Cl)c2)c2c(n1)-c1ccccc1OC2 0.579%, CO[C@@H]1[C@@H](OC(N)=O)[C@@H](O)[C@H](Oc2ccc3c(O)c(NC(=O)c4ccc(O)c(CC=C(C)C)c4)c(=O)oc3c2C)OC1(C)C -16.7%, CCCCc1nc2ccccc2n2c(-c3ccc(C)cc3)c3c(=O)n(C)c(=O)n(C)c3c12 -16.3%, Nc1c(-c2nc(-c3ccc(Cl)cc3)cs2)c2ccccn2c1C(=O)c1ccc2c(c1)OCO2 -1.01%, Cc1c(C)n(Cc2ccc(Cl)cc2)c2ccc(C(=O)NCCc3ccc(S(N)(=O)=O)cc3)cc12 0.183%, COCCCNC(=O)c1cc2c(=O)n3cccc(C)c3nc2s1 -6.19%, Cc1cc(N2CCCCC2)nc2ccc(NC(=O)c3cccc(F)c3)cc12 -8.51%, CSc1cccc(NC(=O)CN(c2ccccc2)S(=O)(=O)N(C)C)c1 -14%, CC1CCN(S(=O)(=O)c2ccc3c(c2)N(CC(=O)NC(C)c2ccccc2)C(=O)CO3)CC1 (configuration not stated) -5.6%, CCOc1ccc(Nc2nc3ccccc3n3c(CC)nnc23)cc1 -11.1%, CCCN1CCN(CCCNC(=O)c2cnn(-c3ccc(F)cc3)c2-n2cccc2)CC1 -1.93%, O=S(=O)(c1cccc(C(F)(F)F)c1)n1c(/C=C/c2ccccc2)nc2ccccc21 -18.5%, O=C(Cn1c(=O)n(-c2ccccc2)c(=O)c2sc3ccccc3c21)N1CCCC1 -15.7%, CCCc1nnc(NC(=O)Cc2coc3cc(C)cc(C)c23)s1 -9.83%, Cc1ccc(C(=O)N2CCc3cc(CNC(=O)COc4ccccc4)ccc32)cc1 -12.8%, Cc1ccc2oc(=O)c3cnn(CC(=O)Nc4cccc(C(F)(F)F)c4)c3c2c1 -20.6%, COc1ccc(CCNC(=O)c2nnc(Cc3ccc(Cl)cc3)o2)cc1OC -11.8%, O=C(NCC(c1ccco1)S(=O)(=O)c1ccc(Cl)cc1)c1ccccc1F (configuration not stated) -13.1%, COc1ccc(-c2nn3c(=O)cc(CN4CCN(C(=O)Nc5ccc(C)c(Cl)c5)CC4)nc3s2)cc1 -17.4%, CC(C)c1ccc(NC(=O)CN2C(=O)COc3ccc(S(=O)(=O)Nc4ccccc4)cc32)cc1 -36.4%, O=[N+]([O-])c1cc(-c2nc(-c3cccnc3)no2)ccc1NCc1ccccc1 -5.54%, CC(C)OCCCNC(=O)CCCn1c(SCC(=O)c2ccc(F)cc2)nc2c(sc3ccccc32)c1=O -2.9%, O=C(Nc1ccc(Br)cc1)C1CCN(S(=O)(=O)c2cccc3nsnc23)CC1 -8.9%, Cc1c(C(=O)NCc2ccccc2)sc2nc3n(c(=O)c12)CCC3 -11.7%, CCCOC(=O)c1ccc(NC(=O)Cc2csc(C)n2)cc1 -3.73%, Cc1ccc(NS(=O)(=O)c2ccc3[nH]c4c(c3c2)CCCCCC4)cc1Cl -33.8%, COCC(=O)N1c2nc(C(C)C)nn2C2(CCCCC2)[C@@H]2CCCC[C@@H]21 9.5%, CSc1nc2sc3c(c2c(=O)n1-c1ccccc1C)CCCC3 -10.8%, CCC(=O)N1CCc2cc(Br)cc(S(=O)(=O)NCc3ccc(Cl)cc3)c21 6.68%, Cc1cccc(N2C(=O)CSC23C(=O)N(Cc2cccc(C(F)(F)F)c2)c2ccccc23)c1 (configuration not stated) -25%, CCN(c1ccccc1)c1nnc(NC(=O)Nc2cccc(Br)c2)s1 -8.51%, O=C1CC(c2nc3ccccc3n2CCCOc2ccccc2)CN1c1ccc(F)cc1 (configuration not stated) -36.6%, Cc1cc(C)cc(-n2ccn(CC(=O)Nc3ccccc3C(F)(F)F)c(=O)c2=O)c1 -12%, CN(C)CCNC(=O)CCCN1C(=O)c2cccnc2Oc2ccc(Cl)cc21 -12.9%, Cc1ccc(N2CC(C)Cn3c2nc2c3c(=O)n(CC(=O)O)c(=O)n2C)cc1 (configuration not stated) -8.62%, C=Cc1ccc(CSc2nc(-c3ccccc3Cl)nc3c2Cc2c(CO)cnc(C)c2O3)cc1 -8.39%, Cc1nc(N2CCCC2)c2c(C(=O)N3CCN(c4cccc(Cl)c4)CC3)c(C)oc2n1 -6.21%, COc1ccc(N2CCN(C(=O)c3ccc(CS(=O)(=O)c4ccc(Br)cc4)o3)CC2)cc1 -8.94%, CCOc1ccc(C2c3c(oc4ccc(C)cc4c3=O)C(=O)N2Cc2ccc3c(c2)OCO3)cc1OC (configuration not stated) -17.7%, Cc1ccc(CNC(=O)c2ccc(CSCc3ccc(C)cc3)o2)cc1 3.04%, COCCCNC(=O)CSc1c2c(nc3ccc(Cl)cc13)CCCC2 -3.75%, CCN(c1ccc(OC)cc1)S(=O)(=O)c1nnc(NC(=O)c2ccccc2Cl)s1 -7.94%, Cc1ccc(OCC(=O)Nc2ccc3nc(SCC(=O)N4CCCC4)sc3c2)cc1 -13%, CNC(=O)c1ccc2c(c1)N=C(C)c1cc(C)ccc1S2 -15.9%, O=C(CSc1nc2cc(C(=O)NC3CCCC3)ccc2c(=O)n1CC1CCCO1)c1ccc(F)cc1 (configuration not stated) -12.7%, COc1cc(OC)c(NC(=O)CSc2nccn2C)cc1Cl -22.1%, COc1ccc2oc(-c3ccc(C)c(NC(=O)c4cccnc4)c3)nc2c1 -19.2%, Cc1ccc(CNC(=O)c2ccc(-n3c(C)cc4c3CCCC4)cc2)cc1 -17.4%, CC1CCN(c2oc(-c3cccs3)nc2S(=O)(=O)c2ccc(Cl)cc2)CC1 -20.5%, Cc1cccc(CSc2cn(CC(=O)N3CCCCC3)c3ccccc23)c1 -34.4%, Cc1cc(C)c2sc(N(Cc3cccnc3)C(=O)CCS(=O)(=O)c3ccccc3)nc2c1 -5.33%
